Among the test systems are A498 renal; CAKI-1 renal; HOP-92 NSCLC; SR leukemia; BT-549 breast; CCRF-CEM leukemia; DU-145 prostate; HCC-2998 colon; HL-60(TB) leukemia; IGROV1 ovarian; K-562 leukemia; LOX IMVI melanoma; M14 melanoma; MDA-MB-231 breast; MOLT-4 leukemia; OVCAR-5 ovarian; SK-OV-3 ovarian; SN12C renal; SNB-19 CNS; T-47D breast; UACC-257 melanoma; UO-31 renal; A549 NSCLC; LXFL 529 NSCLC; RXF-631 renal; SW-620 colon; DLD-1 colon; DMS 273 small cell lung; KM20L2 colon; M19-MEL melanoma; NCI-H226 lung; SF-539 CNS; SNB-78 CNS.

Assay in all cases: DTP human tumour cell line panel, 48 h

Molecules are shown by their SMILES.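 Cells were grown in 96-well plates and exposed to each compound for 48 hours at five concentrations; endpoints were interpolated linearly between bracketing concentrations, or set to the highest concentration if not reached. Abbreviation: GI50, concentration required for 50% inhibition of growth.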 Certain results were filed several times, with different values. They are shown here; other results are not. There may be further records. For some of these results: Records of one sample usually come from different ranges of test concentrations, which the source does not state; a value can be the end of its range. Marks in square brackets tell the records apart. The letters are not those of the source and start again with each entry. For some of these results: Values that stand side by side are repeated measurements across runs, samples, wells, individuals or studies.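 TGI marks complete inhibition of growth.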

In general, GI50 refers to the concentration that inhibits growth by half. As a reminder, the TGI is the concentration at which net growth stops. A low value points to greater sensitivity of the cells. As to `Cc1nc(Nc2n[nH]c3c2CN(C(=O)N[C@H](CN(C)C)c2ccccc2)C3(C)C)c2sccc2n1`, the GI50 with A498 renal is 112 nM [sample A, mean of 2 tests] and 1.28 µM [sample B, mean of 2 tests]; with CAKI-1 renal, 111 nM [sample A, mean of 2 tests] and 1.69 µM [sample B, mean of 2 tests]; in the experiment with HOP-92 NSCLC it was 166 nM [sample A, mean of 2 tests] and < 10 nM [sample B, mean of 2 tests]. For the same compound, in the experiment on SR leukemia, the TGI was 2.2 µM [sample A, 1 test] and > 46.4 µM [sample B, mean of 2 tests].
For `CCC1=C[C@@H]2CN(C1)Cc1c([nH]c3ccccc13)[C@@](C(=O)OC)(c1cc3c(cc1OC)N(C)[C@H]1[C@@](O)(C(=O)OC)[C@H](OC(C)=O)[C@]4(CC)[C@@H]5C[C@@H]5CN5CC[C@]31[C@@H]54)C2`, the GI50 with BT-549 breast was 42 nM and 981 nM; in the experiment with IGROV1 ovarian, < 5 nM and 104 nM; in the experiment on OVCAR-5 ovarian, < 5 nM and 397 nM; in the experiment with SN12C renal, < 5 nM and 56.1 nM; with SNB-19 CNS, 5.35 nM and 4.7 µM; in the experiment with T-47D breast, < 5 nM and 744 nM. In addition, the GI50 with UACC-257 melanoma was < 5 nM and 232 nM; in the experiment on UO-31 renal it was 35.1 nM and 1.21 µM. Further, the TGI is 5.58 µM and > 100 µM with CCRF-CEM leukemia; < 5 nM and 334 nM in the experiment with DU-145 prostate; 34.2 nM and 7.24 µM with HCC-2998 colon; < 5 nM and 11.5 µM in the experiment with HL-60(TB) leukemia; 1.32 µM and 13.9 µM in the experiment on K-562 leukemia; 71.8 nM and 12.5 µM with LOX IMVI melanoma. The TGI was 18.8 nM and 3.08 µM in the experiment on M14 melanoma; 72.9 nM and 1.79 µM with MDA-MB-231 breast; 5.04 µM and > 100 µM with MOLT-4 leukemia; 63.8 nM and 6.58 µM in the experiment with SK-OV-3 ovarian; 663 nM and 47.1 µM with SR leukemia.
Turning to `CC[C@H]1CN2CCc3cc(OC)c(OC)cc3[C@@H]2C[C@@H]1C[C@H]1NCCc2cc(OC)c(OC)cc21`, the TGI with A549 NSCLC was 97 nM and 1.16 µM; in the experiment with HL-60(TB) leukemia, 44.6 nM and 18.9 µM; with LXFL 529 NSCLC, 133 nM and 2.71 µM; in the experiment with MOLT-4 leukemia, 376 nM and 14.3 nM; in the experiment with RXF-631 renal it was 164 nM and 1.79 µM; in the experiment on SW-620 colon, 118 nM and 1.39 µM.
Take `CC1(C)CC[C@H](C2=CC(=O)c3c(O)ccc(O)c3C2=O)O1`: the TGI in the experiment on CCRF-CEM leukemia was 13.5 µM [sample A, mean of 3 tests] and 648 nM [sample B, mean of 3 tests]; in the experiment on DLD-1 colon, 4.1 µM [sample A, mean of 2 tests] and 373 nM [sample B, 1 test] and 250 nM [sample B, mean of 2 tests]; in the experiment on DMS 273 small cell lung it was 20 µM [sample A, mean of 2 tests] and 2.89 µM [sample B, 1 test] and 1.5 µM [sample B, mean of 2 tests]; in the experiment on HCC-2998 colon, 22.4 µM [sample A, mean of 4 tests] and 3.55 µM [sample B, 1 test] and 1.42 µM [sample B, mean of 3 tests]; in the experiment on K-562 leukemia, > 44.4 µM [sample A, mean of 3 tests] and 415 nM [sample B, 1 test]; in the experiment on KM20L2 colon, 28.7 µM [sample A, mean of 2 tests] and 5.77 µM [sample B, 1 test] and 2.03 µM [sample B, mean of 2 tests]. Further, the TGI in the experiment on LXFL 529 NSCLC was 3.04 µM [sample A, mean of 2 tests] and 1.49 µM [sample B, 1 test] and 230 nM [sample B, mean of 2 tests]; in the experiment with M19-MEL melanoma it was 8.8 µM [sample A, mean of 2 tests] and 408 nM [sample B, 1 test] and 363 nM [sample B, mean of 2 tests]; in the experiment with MOLT-4 leukemia it was > 22.1 µM [sample A, mean of 2 tests] and 406 nM [sample B, 1 test]; in the experiment on NCI-H226 lung it was 17.4 µM [sample A, mean of 4 tests] and 3.54 µM [sample B, 1 test] and 1.21 µM [sample B, mean of 2 tests]; in the experiment on SF-539 CNS it was 9.73 µM [sample A, mean of 4 tests] and 3.41 µM [sample B, 1 test] and 956 nM [sample B, mean of 2 tests]; with SN12C renal it was 7.31 µM [sample A, mean of 3 tests] and 2.9 µM [sample B, 1 test] and 706 nM [sample B, mean of 3 tests]. Moreover, the TGI in the experiment on SNB-19 CNS was 29.5 µM [sample A, mean of 3 tests] and 2.19 µM [sample B, mean of 3 tests]; in the experiment on SNB-78 CNS it was 46.2 µM [sample A, mean of 2 tests] and 2.87 µM, 4.91 µM [sample B, 1 test]. Also, the GI50 with DLD-1 colon is 1.9 µM [sample A, mean of 2 tests] and 176 nM [sample B, 1 test] and 86.1 nM [sample B, mean of 2 tests]; with K-562 leukemia, 3.74 µM [sample A, mean of 3 tests] and 172 nM [sample B, 1 test] and 270 nM [sample B, mean of 2 tests]; in the experiment on KM20L2 colon, 9.51 µM [sample A, mean of 2 tests] and 2.31 µM [sample B, 1 test] and 770 nM [sample B, mean of 2 tests]; with LXFL 529 NSCLC, 1.56 µM [sample A, mean of 2 tests] and 389 nM [sample B, 1 test] and 90.3 nM [sample B, mean of 2 tests]; in the experiment on M19-MEL melanoma, 2.47 µM [sample A, mean of 2 tests] and 200 nM [sample B, 1 test] and 177 nM [sample B, mean of 2 tests].
Turning to `CCN(CC)CCNC(=O)c1c(C)[nH]c(/C=C2\C(=O)Nc3ccc(F)cc32)c1C`, in the experiment with HCC-2998 colon, the GI50 was 2.97 µM [sample A, 1 test] and 684 nM [sample A, mean of 4 tests] and > 10 µM [sample B, 1 test].

For the origin of these results see PubChem BioAssay (NCI).
